# Reference: PubChem BioAssay AID1345082 (National Center for Advancing Translational Sciences (NCATS), 2018)
# Among all 94,000 compounds or so, about 4,000 (4.3%) were called active. The inconclusive results got no clear call from the source; some entries with a clear call stand among them for comparison. The call rests on the fitted dose curve; in most records, active means well fitted inhibition curve with a large enough effect; inconclusive means small, poorly fitted or top-dose-only effect; inactive means no such curve, though single readings can be large or run the other way. Potencies of inconclusive entries are doubtful fits and often do not repeat.
# Assay: Cytotoxic Profiling in NIH 3T3 Cell Line of Diverse Libraries Using Quantitative High-Throughput Screening; further: nearly all actives have a fitted effect of over 55% in size
# Details: NIH 3T3 viability, CellTiter-Glo ATP luminescence, 48-72 h; series mostly up to 96.7 µM
# Summary of the method: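 Luminescent ATP readout (CellTiter-Glo, 10 min RT) after 48 or 72 hr compound exposure of NIH 3T3 cells seeded at 400 cells/well in 1536-well format; quantitative HTS.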
# Potency means the concentration at half of the fitted maximal effect; tags describe the fitted curve by direction and shape.
row,SMILES,Potency
1,N#Cc1ccc(CN2CCn3c(nn(-c4ccc(C(F)(F)F)cc4)c3=O)C2)cc1,"inconclusive: 14.1 µM [inhibitor, full curve, poor fit]"
2,COCCN1CCCC(c2[nH]ccc2C(=O)NCCc2c[nH]c3ccccc23)C1 (centres undefined),"inconclusive: 44.7 µM [inhibitor, partial curve]"
3,CCN1CCCC12Cc1ccccc1CN(C(=O)c1ccccc1)C2 (centres undefined),"inconclusive: 79.4 µM [inhibitor, single point]"
4,NCC(=O)N1CCCC(N2CCN(c3cccc(C(F)(F)F)c3)CC2)C1 (centres undefined),"inconclusive: 89.1 µM [inhibitor, single point]"
5,O=C(COc1ccccc1)N[C@H]1CO[C@H]2[C@@H]1OC[C@@H]2n1nnnc1Oc1ccc(-n2cncn2)cc1,inactive
6,CC(=O)N1CCC(N2CCC(N3C(=O)C4(CCCCC4)C3c3ccncc3)CC2)CC1 (centres undefined),"inconclusive: 79.4 µM [inhibitor, partial curve, poor fit]"
7,COc1ccc(CN2CC3(Cc4ccccc4NC3=O)C2)cc1,inactive
8,CCOCCN1C(=O)COC[C@@H]1[C@H](O)c1ccc(NC(=O)c2ccccc2)cc1,inactive
9,COc1cccc(-c2ccc3ncn(-c4ccc(F)cc4F)c(=O)c3n2)c1OC,"inconclusive: 112 µM [inhibitor, single point]"
10,Cc1cc(C(=O)N2CCc3c(nc(C)nc3N(C)C)C2)c2cccc(C)c2n1,"inconclusive: 35.5 µM [inhibitor, partial curve, poor fit]"
11,Cn1ncc2c(C(=O)NCc3cccnc3)cc(-c3ccc([S+](C)(=O)[O-])cc3)nc21,"inconclusive: 50.1 µM [inhibitor, partial curve, poor fit]"
12,CN1CC(=O)N(C2CCCNCC2)Cc2c(NCCO)ncnc21 (centres undefined),inactive
13,COc1ccc(CN2CCCn3nc(C)c(-c4ccccc4C(C)C)c32)cc1O,active: 35.5 µM
14,CCC(NC(=O)c1coc(COc2ccc(F)cc2)n1)c1ccncc1 (centres undefined),"inconclusive: 31.6 µM [inhibitor, full curve]"
15,O=C(NCc1ccccc1)C1CCN(C(=O)N2CC3CC(C2)[C@H]2CCCC(=O)N2C3)CC1 (some centres undefined),inactive
16,CNC(=O)N1CCc2c(sc3ncnc(N(C)C)c23)C1,"inconclusive: 50.1 µM [inhibitor, partial curve, poor fit]"
17,CN1CC[C@H](N(Cc2ccccc2)Cc2ccccc2)C[C@H](O)C1,"inconclusive: 50.1 µM [inhibitor, partial curve, poor fit]"
18,COc1cc(F)cc(-c2cccc(CCOc3cnc4c(ccn4CC(=O)O)c3)c2)c1,"inconclusive: 100 µM [inhibitor, partial curve]"
19,O=C(Nc1ccccc1)c1nc2c(o1)CCN(Cc1ccccc1)CC2,"inconclusive: 50.1 µM [inhibitor, partial curve, poor fit]"
20,COc1cc(SC)ccc1C(=O)N[C@H]1C[C@H]2C(=O)Nc3ccc(-c4ccc5c(c4)OCO5)cc3C(=O)N2C1,"inconclusive: 11.2 µM [inhibitor, full curve, poor fit]"
21,Cc1cccc(N2CCN(C(=O)c3noc(-c4ccc5c(c4)OCO5)n3)CC2)c1,"inconclusive: 70.8 µM [inhibitor, single point]"
22,Cn1cccc1CN1CC2(C1)C(=O)Nc1ccccc12,"inconclusive: 56.2 µM [inhibitor, partial curve, poor fit]"

row,SMILES,Potency
1,O=C1CC2(CCN(C(=O)c3ccccn3)CC2)Oc2cc(Cl)ccc21,inactive
2,Cc1cccc(CC(=O)N2CCCN(c3cc(-c4ccc(Br)cc4)[nH]n3)CC2)c1,active: 31.6 µM
3,OCC1CN(C2CCC2)CC12CCN(Cc1ccc(F)cc1)CC2 (centres undefined),"inconclusive: 44.7 µM [inhibitor, partial curve, poor fit]"
4,Cc1ccsc1C(=O)N1CC(Oc2ccccc2-c2nc(-c3cnccn3)no2)C1,inactive
5,Cn1ncc2c(C(=O)NCc3cccs3)cc(-c3ccc(Cl)nc3)nc21,"inconclusive: 12.6 µM [inhibitor, full curve, poor fit]"
6,CC(C)(C)COC(=O)N1CC(=O)N(CCCc2ccccc2)CC(O)C1 (centres undefined),"inconclusive: 44.7 µM [inhibitor, partial curve, poor fit]"
7,Cc1nn(-c2ccc(C(C)(C)C)cc2)c(C)c1[C@@H]1C=C[C@@H](NC(=O)Nc2ccccc2)C1,"inconclusive: 11.2 µM [inhibitor, full curve, poor fit]"
8,COc1cccc(-c2ccc(C(=O)NCCNC(=O)c3ccccn3)cc2)c1,"inconclusive: 6.31 µM [inhibitor, full curve, poor fit]"
9,Cc1ccc(-c2ccccc2CN2CCN(C(=O)C3CC3)CC2)cc1Cl,"inconclusive: 50.1 µM [inhibitor, partial curve, poor fit]"
10,O=C1CC(c2noc(-c3cc(F)ccc3F)n2)CN1c1ccc(F)cc1 (centres undefined),"inconclusive: 39.8 µM [inhibitor, partial curve, poor fit]"
11,Cc1noc(C)c1[S+](=O)([O-])N1CCN(C(=O)c2nc3cccnc3n(CCc3ccccc3)c2=O)CC1,inactive
12,Cc1cnc(C(=O)NCC23CCC=C2N(C)C(=O)CC3)cn1 (centres undefined),inactive
13,O=C(CN1C(=O)NC(c2ccccc2Cl)C2=C1COC2=O)Nc1cccc(C(F)(F)F)c1 (centres undefined),"inconclusive: 50.1 µM [inhibitor, partial curve, poor fit]"
14,CNC(=O)[C@H]1C[C@]2(CCCCN(C)C2=O)N(C(=O)Cc2cccs2)[C@H]1c1ccccc1,"inconclusive: 56.2 µM [inhibitor, partial curve, poor fit]"
15,C[S+](=O)([O-])c1ccc(-c2nc(C(=O)NC3CC3)n3ccccc23)cc1,"inconclusive: 44.7 µM [inhibitor, partial curve, poor fit]"
16,CC(C)NC(=O)Cn1nc2c(cc1=O)CCCCC2,inactive
17,Cc1cn2nc(C(=O)NCCc3cccs3)cc2c(N2CCCC2)n1,"inconclusive: 50.1 µM [inhibitor, partial curve, poor fit]"
18,Cc1ccc(NC(=O)c2ccc3c(c2)N(C)C2CCCCN2C3=O)cc1C (centres undefined),"inconclusive: 50.1 µM [inhibitor, partial curve, poor fit]"
19,CCc1noc(-c2cccn3c(CNC(=O)c4cccc(N(C)C)c4)nnc23)n1,inactive
20,CN(Cc1ccccc1)Cc1cc(C[C@@H]2C[C@H](NC(=O)C3CC3)C2(C)C)no1,"inconclusive: 100 µM [inhibitor, partial curve]"
21,O=C(c1ccc(Cl)cc1)N1CCC2(CC1)CC(c1cccc(C(F)(F)F)c1)=NO2,"inconclusive: 15.8 µM [inhibitor, full curve]"
22,O=C(NCCc1ccc(Cl)cc1)C1CCCN(c2ccnc3ccnn23)C1 (centres undefined),inactive

row,SMILES,Potency
1,COc1cccc(-c2cc(C(=O)N(C)C)c3cnn(C)c3n2)c1,"inconclusive: 100 µM [inhibitor, partial curve, poor fit]"
2,CNC(=O)[C@@H](c1ccccc1F)N1CCC[C@H]1C(=O)NCCN(C)C,inactive
3,CN(C)C(=O)N1CCC(C(=O)N2CCC3(CC2)CC(=O)Nc2ccccc2O3)CC1,inactive
4,Cc1[nH]c2c(F)cccc2c1CC(=O)N(C)Cc1ccc2nsnc2c1,"inconclusive: 89.1 µM [inhibitor, partial curve, poor fit]"
5,O=C(c1ccnc2ccccc12)N1CCC2(CC1)Nc1ccccc1NC2=O,inactive
6,COc1ccc(-c2noc(CC3CCN(C(=O)Cc4cccc(C)c4)CC3)n2)cc1,"inconclusive: 44.7 µM [inhibitor, partial curve, poor fit]"
7,O=C(Nc1ccccc1)N1CC(Oc2cccc(-c3nc(-c4ccccc4)no3)c2)C1,"inconclusive: 11.2 µM [inhibitor, full curve, poor fit]"
8,CN(C)C(=O)c1c[nH]c2cccnc12,inactive
9,CN(Cc1ccc(OC(F)(F)F)cc1)C1CCCc2ccccc21 (centres undefined),inactive
10,CCCc1noc(-c2nc(-c3ccccc3F)no2)n1,inactive
11,Cc1noc(-c2cn(C3CCN(C(=O)Cc4ccc(OC(F)(F)F)cc4)CC3)nn2)n1,"inconclusive: 10 µM [inhibitor, partial curve, poor fit]"
12,COCCOC1CCOC2(CCN(C(=O)c3ccoc3)CC2)C1 (centres undefined),inactive
13,Cc1noc(C)c1-c1cc2c(cc(C)n2C)c(NCc2ccncc2)n1,"inconclusive: 31.6 µM [inhibitor, full curve]"
14,O=C(c1ccc(CC2CCN(C(=O)c3nccc4ccccc34)CC2)cc1)N1CCOCC1,"inconclusive: 44.7 µM [inhibitor, partial curve, poor fit]"
15,CN1CCC(N2CCC(O)(c3csc(CN4CCc5ccccc5C4)n3)CC2)CC1,active: 56.2 µM
16,COc1ccccc1N1CCN(C(=O)c2noc(-c3ccc(C)cc3)n2)CC1,"inconclusive: 70.8 µM [inhibitor, partial curve, poor fit]"
17,O=C1CCN(Cc2ccncc2)CCCC(C(=O)NCCN2CCC(N3CCCCC3)CC2)CCN1 (centres undefined),inactive
18,CC[C@H]1CN(C(=O)Nc2cccc(C(F)(F)F)c2)CC[C@H]1CC(=O)NCc1ccc(OC)cc1,"inconclusive: 39.8 µM [inhibitor, partial curve, poor fit]"
19,COc1ccccc1-c1cccc(CN2CCCC(C(=O)NCCc3ccc(F)cc3)C2)c1 (centres undefined),active: 31.6 µM
20,COCC1CN(C2CCC2)CC12CCN(C(=O)CCCc1ccccc1)CC2 (centres undefined),"inconclusive: 25.1 µM [inhibitor, full curve, poor fit]"
